No constants are given. Whether binding was seen depends on the method and setting. Binding seen in cells or lysates may run through a third protein. Some binding calls cover weakened binding; strength is not graded here. Sequences can lack the tags named with a protein.
Tests used:
[1] = biological target: T1, HIS-tagged Ddi1 (^HISDdi1) (yeast) (UniProt P40087); assay: pull-down; HIS-Ddi1 on Ni beads incubated with one lysate or extract alone (GST-Rpn1 or GST-Ufo1 bacterial lysate, GFP-Ho or GFP-Ufo1 yeast extract); washed with 2.5% Triton X100 and 100 mM imidazole (Figure 5A lanes 4-6, Figure 5B lanes 3 and 4); only the target purified
T1 sequence: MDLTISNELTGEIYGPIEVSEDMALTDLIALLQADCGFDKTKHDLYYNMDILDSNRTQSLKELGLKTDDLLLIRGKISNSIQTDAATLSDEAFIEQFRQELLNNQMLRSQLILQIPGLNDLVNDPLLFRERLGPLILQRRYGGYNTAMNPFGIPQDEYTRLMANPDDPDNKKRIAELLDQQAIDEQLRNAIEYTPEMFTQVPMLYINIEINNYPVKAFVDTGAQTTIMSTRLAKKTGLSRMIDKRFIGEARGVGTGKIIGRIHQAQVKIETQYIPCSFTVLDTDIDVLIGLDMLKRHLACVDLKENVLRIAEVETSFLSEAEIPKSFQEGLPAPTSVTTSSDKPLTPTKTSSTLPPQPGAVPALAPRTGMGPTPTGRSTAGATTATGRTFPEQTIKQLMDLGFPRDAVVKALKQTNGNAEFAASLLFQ

[2] = biological target: T2, GST-tagged full-length Ufo1 (^GSTFL-Ufo1) (yeast) (UniProt Q04511); assay: pull-down; GST-Ufo1 or GST-Ufo1-WD40 on GSH beads incubated with yeast extract (wild type or ddi1Δ) with myc-Cdc53, a GFP-tagged 19S RP subunit and GFP-Ho present (Figures 2A, 2B, S2, S3); only the target purified
T2 sequence: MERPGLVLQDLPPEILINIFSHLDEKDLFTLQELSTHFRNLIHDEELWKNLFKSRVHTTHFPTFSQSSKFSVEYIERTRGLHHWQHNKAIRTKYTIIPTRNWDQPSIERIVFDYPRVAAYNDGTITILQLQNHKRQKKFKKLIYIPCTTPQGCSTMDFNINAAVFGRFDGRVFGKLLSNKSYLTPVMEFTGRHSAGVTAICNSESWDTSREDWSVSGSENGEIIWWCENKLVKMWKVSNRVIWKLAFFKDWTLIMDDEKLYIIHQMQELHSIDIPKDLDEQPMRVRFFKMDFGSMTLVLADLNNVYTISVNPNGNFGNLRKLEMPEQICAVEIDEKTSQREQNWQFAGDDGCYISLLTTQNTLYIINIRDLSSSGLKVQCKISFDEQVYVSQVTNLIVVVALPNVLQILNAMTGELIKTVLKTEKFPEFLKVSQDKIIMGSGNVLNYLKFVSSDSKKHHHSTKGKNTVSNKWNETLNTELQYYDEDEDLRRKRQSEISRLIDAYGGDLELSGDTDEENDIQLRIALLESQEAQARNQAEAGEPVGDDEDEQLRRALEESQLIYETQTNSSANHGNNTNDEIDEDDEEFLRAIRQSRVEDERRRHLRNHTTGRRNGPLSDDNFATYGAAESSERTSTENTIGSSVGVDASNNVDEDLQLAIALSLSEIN

[3] = biological target: T3, HIS-tagged Rpn1 (^HISRpn1) (yeast) (UniProt P38764); assay: co-IP; bacterial lysates with HIS-Rpn1 and GST-Ufo1 mixed with yeast extract with myc-Cdc53 and GFP-Ho; aliquots immunoprecipitated with anti-myc, anti-GFP, anti-GST or anti-HIS and Protein A beads (Figure 4, + Ho)
T3 sequence: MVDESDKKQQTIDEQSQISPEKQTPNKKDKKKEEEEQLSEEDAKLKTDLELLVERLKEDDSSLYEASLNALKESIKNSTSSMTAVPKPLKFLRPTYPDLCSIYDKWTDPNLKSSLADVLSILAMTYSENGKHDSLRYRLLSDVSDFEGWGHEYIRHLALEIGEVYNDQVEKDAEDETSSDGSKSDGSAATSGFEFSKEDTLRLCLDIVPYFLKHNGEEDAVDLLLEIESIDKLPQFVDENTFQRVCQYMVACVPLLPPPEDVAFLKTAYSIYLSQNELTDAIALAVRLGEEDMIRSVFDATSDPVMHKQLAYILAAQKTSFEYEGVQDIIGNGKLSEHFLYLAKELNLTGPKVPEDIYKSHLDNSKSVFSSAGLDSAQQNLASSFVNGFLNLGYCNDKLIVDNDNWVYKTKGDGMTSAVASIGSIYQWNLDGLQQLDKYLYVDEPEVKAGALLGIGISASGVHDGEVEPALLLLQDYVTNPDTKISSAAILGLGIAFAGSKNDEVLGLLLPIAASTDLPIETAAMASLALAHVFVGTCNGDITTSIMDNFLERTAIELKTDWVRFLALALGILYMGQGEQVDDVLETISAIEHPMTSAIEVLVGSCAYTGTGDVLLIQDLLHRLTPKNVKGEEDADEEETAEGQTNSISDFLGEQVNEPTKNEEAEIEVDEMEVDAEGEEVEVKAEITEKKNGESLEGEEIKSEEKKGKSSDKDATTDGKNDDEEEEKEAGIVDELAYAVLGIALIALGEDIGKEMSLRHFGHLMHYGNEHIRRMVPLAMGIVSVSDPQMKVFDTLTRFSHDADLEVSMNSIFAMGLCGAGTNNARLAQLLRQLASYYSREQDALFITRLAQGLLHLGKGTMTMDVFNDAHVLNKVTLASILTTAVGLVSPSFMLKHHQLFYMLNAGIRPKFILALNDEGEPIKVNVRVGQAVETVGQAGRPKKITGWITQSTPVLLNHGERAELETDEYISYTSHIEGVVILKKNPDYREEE

[4] = biological target: T4, GST-tagged Rpn1 (^GSTRpn1) (yeast) (UniProt P38764); assay: pull-down; GST-Rpn1, GST-Rpn10 or GST on GSH beads incubated with yeast extract with myc-Cdc53 and GFP-Ho mixed with bacterial lysate with HIS-Ufo1 (Figure 3B); only the target purified
T4 sequence: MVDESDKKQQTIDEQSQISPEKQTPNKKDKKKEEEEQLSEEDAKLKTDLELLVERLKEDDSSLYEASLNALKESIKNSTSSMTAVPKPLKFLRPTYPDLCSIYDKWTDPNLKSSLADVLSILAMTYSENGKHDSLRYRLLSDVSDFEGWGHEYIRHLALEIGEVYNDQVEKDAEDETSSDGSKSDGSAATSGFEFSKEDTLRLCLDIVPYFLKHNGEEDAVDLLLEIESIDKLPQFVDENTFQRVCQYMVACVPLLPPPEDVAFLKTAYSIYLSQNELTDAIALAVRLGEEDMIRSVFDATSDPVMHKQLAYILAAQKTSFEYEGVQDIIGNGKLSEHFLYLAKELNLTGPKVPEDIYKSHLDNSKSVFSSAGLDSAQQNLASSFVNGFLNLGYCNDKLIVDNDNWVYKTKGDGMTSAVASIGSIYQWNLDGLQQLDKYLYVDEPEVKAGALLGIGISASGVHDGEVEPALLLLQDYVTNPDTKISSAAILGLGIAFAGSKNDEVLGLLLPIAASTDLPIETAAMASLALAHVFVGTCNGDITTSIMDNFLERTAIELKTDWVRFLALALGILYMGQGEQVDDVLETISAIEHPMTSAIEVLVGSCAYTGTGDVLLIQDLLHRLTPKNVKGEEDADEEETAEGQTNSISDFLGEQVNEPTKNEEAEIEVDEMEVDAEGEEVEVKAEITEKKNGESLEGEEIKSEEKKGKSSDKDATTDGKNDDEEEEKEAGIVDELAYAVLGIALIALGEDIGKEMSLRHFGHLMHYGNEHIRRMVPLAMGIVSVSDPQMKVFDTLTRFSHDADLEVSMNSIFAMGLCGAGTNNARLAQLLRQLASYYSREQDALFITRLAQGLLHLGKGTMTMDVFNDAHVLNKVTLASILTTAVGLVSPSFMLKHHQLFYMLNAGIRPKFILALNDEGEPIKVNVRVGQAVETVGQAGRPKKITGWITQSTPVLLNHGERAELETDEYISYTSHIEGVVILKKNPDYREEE

[5] = biological target: T5, GST-tagged Rpn10 (^GSTRpn10) (yeast) (UniProt P38886); assay: as above
T5 sequence: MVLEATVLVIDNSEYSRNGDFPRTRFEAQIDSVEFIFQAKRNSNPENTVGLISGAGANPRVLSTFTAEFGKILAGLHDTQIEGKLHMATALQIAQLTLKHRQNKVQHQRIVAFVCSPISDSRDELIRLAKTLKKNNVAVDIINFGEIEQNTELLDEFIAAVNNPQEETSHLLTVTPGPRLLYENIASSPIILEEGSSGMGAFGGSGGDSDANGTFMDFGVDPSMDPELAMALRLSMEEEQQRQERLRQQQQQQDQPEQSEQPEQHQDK

Measured: binding

B1: GFP-tagged Ho endonuclease (^GFPHo) (enzyme, UniProt P09932 1-586)
chain: MLSENTTILMANGEIKDIANVTANSYVMCADGSAARVINVTQGYQKIYNIQQKTKHRAFEGEPGRLDPRRRTVYQRLALQCTAGHKLSVRVPTKPLLEKSGRNATKYKVRWRNLQQCQTLDGRIIIIPKNHHKTFPMTVEGEFAAKRFIEEMERSKGEYFNFDIEVRDLDYLDAQLRISSCIRFGPVLAGNGVLSKFLTGRSDLVTPAVKSMAWMLGLWLGDSTTKEPEISVDSLDPKLMESLRENAKIWGLYLTVCDDHVPLRAKHVRLHYGDGPDENRKTRNLRKNNPFWKAVTILKFKRDLDGEKQIPEFMYGEHIEVREAFLAGLIDSDGYVVKKGEGPESYKIAIQTVYSSIMDGIVHISRSLGMSATVTTRSAREEIIEGRKVQCQFTYDCNVAGGTTSQNVLSYCRSGHKTREVPPIIKREPVYFSFTDDFQGESTVYGLTIEGHKNFLLGNKIEVKSCRGCCVGEQLKISQKKNLKHCVACPRKGIKYFYKDWSGKNRVCARCYGRYKFSGHHCINCKYVPEAREVKKAKDKGEKLGITPEGLPVKGPECIKCGGILQFDAVRGPHKSCGNNAGARIC
modifications: ubiquitylated as produced in yeast (sites not given)
binds: all assays above
